Single values of this set are uncertain.
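Also: [psi-pin-] Saccharomyces cerevisiae expressing SupN fusions, induced by 100 µM Cu2SO4, selected 7 d at 30 °C without adenine and uracil, scored by deep sequencing of output versus input.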

The nature of the first series: amyloid nucleation score relative to library mode (yeast Sup35 reporter selection) (log enrichment difference); higher = more amyloid nucleation; sequences are the first 22 residues of the Bri2 peptide extended by up to 12 random residues. Particulars: random library (experiment): 1;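 active = nucleation score significantly above 0 at FDR 0.05; inactive = not significantly above 0 or absent from output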.
As for EASNCFAIRHFENKFAVETLICRLKACVNSWCRW, the amyloid nucleation score entry is “inactive”.

The sequence EASNCFAIRHFENKFAVETLICRLKDEHVSAVEL registered an amyloid nucleation score of 3.45.

For the sequence EASNCFAIRHFENKFAVETLICRLKLNACTCR, the amyloid nucleation score entry was “inactive”.

For EASNCFAIRHFENKFAVETLICRLKTGVTGIMCH, the amyloid nucleation score entry is “inactive”.

In the case of EASNCFAIRHFENKFAVETLICRLLLPEPVGGAG, the amyloid nucleation score entry was “inactive”.

EASNCFAIRHFENKFAVETLICRLLQGLSLKRCW: the amyloid nucleation score was 4.11.

Turning to EASNCFAIRHFENKFAVETLICRLLRN, the amyloid nucleation score result was “inactive”.

For EASNCFAIRHFENKFAVETLICRLLSLCRYVTWF, the amyloid nucleation score result was “inactive”.

Take EASNCFAIRHFENKFAVETLICRLLTK: the amyloid nucleation score result was “inactive”.

Turning to EASNCFAIRHFENKFAVETLICRLMGLVAGEFQA, the amyloid nucleation score result is “inactive”.

Turning to EASNCFAIRHFENKFAVETLICRLMWMRFWRMAA, the amyloid nucleation score result is “inactive”.

For EASNCFAIRHFENKFAVETLICRLN, the amyloid nucleation score entry is “inactive”.

Take EASNCFAIRHFENKFAVETLICRLNVGSDQALLV: the amyloid nucleation score result was “inactive”.

On to EASNCFAIRHFENKFAVETLICRLPYMWF, for which the amyloid nucleation score result is “inactive”.

Consider EASNCFAIRHFENKFAVETLICRLQLMGTIGVTG, for which the amyloid nucleation score result is “inactive”.

EASNCFAIRHFENKFAVETLICRLQP had an amyloid nucleation score of 1.49.

Take EASNCFAIRHFENKFAVETLICRLQYAVVYVGRV: the amyloid nucleation score result is “inactive”.

Take EASNCFAIRHFENKFAVETLICRLRGRTIEWESK: the amyloid nucleation score result is “inactive”.

In the case of EASNCFAIRHFENKFAVETLICRLRMLKRWRGRQ, the amyloid nucleation score amounted to 4.67.

In the case of EASNCFAIRHFENKFAVETLICRLRPVRRGVGS, the amyloid nucleation score result was “inactive”.

As to EASNCFAIRHFENKFAVETLICRLSSSVRRDSLR, the amyloid nucleation score entry was “inactive”.

For the sequence EASNCFAIRHFENKFAVETLICRLSVLMEWCKDR, the amyloid nucleation score entry was “inactive”.

In the case of EASNCFAIRHFENKFAVETLICRLSVVYDRVDLA, the amyloid nucleation score was 1.93.

EASNCFAIRHFENKFAVETLICRLTCFAQYGIKF: the amyloid nucleation score entry is “inactive”.

For EASNCFAIRHFENKFAVETLICRLTLVIISVIQV, the amyloid nucleation score result is “inactive”.

With EASNCFAIRHFENKFAVETLICRLTPRPRQPRRS, the amyloid nucleation score entry was “inactive”.

As for EASNCFAIRHFENKFAVETLICRLTRTSDFTCHL, the amyloid nucleation score result is “inactive”.

Consider EASNCFAIRHFENKFAVETLICRLTSKYLKRC, for which the amyloid nucleation score result was “inactive”.

As for EASNCFAIRHFENKFAVETLICRLTSTSSSMCVA, the amyloid nucleation score result is “inactive”.

In the case of EASNCFAIRHFENKFAVETLICRLTWQFYGLVWG, the amyloid nucleation score result is “inactive”.

On to EASNCFAIRHFENKFAVETLICRLTYDTWPLIDG, for which the amyloid nucleation score result is “inactive”.

EASNCFAIRHFENKFAVETLICRLVFRRIKWPRR: the amyloid nucleation score stood at 0.573.

Turning to EASNCFAIRHFENKFAVETLICRLVMLRMLVRGR, the amyloid nucleation score entry is “inactive”.

Take EASNCFAIRHFENKFAVETLICRLVRKISGIIHM: the amyloid nucleation score entry is “inactive”.

As for EASNCFAIRHFENKFAVETLICRLVSHR, the amyloid nucleation score result was “inactive”.

As to EASNCFAIRHFENKFAVETLICRLVSWWRMKLHR, the amyloid nucleation score entry was “inactive”.

Regarding EASNCFAIRHFENKFAVETLICRLWCRGASEARG, the amyloid nucleation score came out at 3.47.

In turn, EASNCFAIRHFENKFAVETLICRLWNCQSVEPSW registered an amyloid nucleation score of 3.99.

Turning to EASNCFAIRHFENKFAVETLICRLWRDPAEEPPR, the amyloid nucleation score result was “inactive”.

Turning to EASNCFAIRHFENKFAVETLICRM, the amyloid nucleation score entry was “inactive”.

Turning to EASNCFAIRHFENKFAVETLICRMAG, the amyloid nucleation score entry was “inactive”.

EASNCFAIRHFENKFAVETLICRMALKYAGINAL returned an amyloid nucleation score of -0.0572.

EASNCFAIRHFENKFAVETLICRMCMWSRDLM displayed an amyloid nucleation score of 0.565.

Turning to EASNCFAIRHFENKFAVETLICRMERTGCWCCVD, the amyloid nucleation score was found to be 4.67.

As for EASNCFAIRHFENKFAVETLICRMGGSQANGGES, the amyloid nucleation score was 5.8.

Turning to EASNCFAIRHFENKFAVETLICRMLRSVRTFAGH, the amyloid nucleation score result is “inactive”.

As to EASNCFAIRHFENKFAVETLICRMLWV, the amyloid nucleation score entry was “inactive”.

Turning to EASNCFAIRHFENKFAVETLICRMMMAGQRPGPR, the amyloid nucleation score result is “inactive”.

In turn, EASNCFAIRHFENKFAVETLICRMNIYGVYVQVS returned an amyloid nucleation score of 6.34.

Staying with this series, now noted: random library (experiment): 2.
As to EASNCFAIRHFENKFAVETLICRLIWYCATSDFM, the amyloid nucleation score result was “inactive”.

As for EASNCFAIRHFENKFAVETLICRLKAKYIRLFMC, the amyloid nucleation score entry is “inactive”.

As for EASNCFAIRHFENKFAVETLICRLLDVS, the amyloid nucleation score entry is “inactive”.

EASNCFAIRHFENKFAVETLICRLLERAVGVRTY: the amyloid nucleation score entry was “inactive”.

On to EASNCFAIRHFENKFAVETLICRLLFVTNFTWFK, for which the amyloid nucleation score entry is “inactive”.

Take EASNCFAIRHFENKFAVETLICRLLVFFVYKVNR: the amyloid nucleation score result was “inactive”.

EASNCFAIRHFENKFAVETLICRLNKFRYGCLIS: the amyloid nucleation score result was “inactive”.

Turning to EASNCFAIRHFENKFAVETLICRLNMH, the amyloid nucleation score entry is “inactive”.

EASNCFAIRHFENKFAVETLICRLNR registered an amyloid nucleation score of 2.19.

Regarding EASNCFAIRHFENKFAVETLICRLPNCFERFWPS, the amyloid nucleation score was found to be 4.16.

Sequence EASNCFAIRHFENKFAVETLICRLSMYFGLHIVD showed an amyloid nucleation score of 4.86.

With EASNCFAIRHFENKFAVETLICRLSVFTDMRWSD, the amyloid nucleation score result was “inactive”.

Turning to EASNCFAIRHFENKFAVETLICRLSWIHRGYPFY, the amyloid nucleation score result is “inactive”.

As for EASNCFAIRHFENKFAVETLICRLTGSFARGLDP, the amyloid nucleation score result was “inactive”.

In the case of EASNCFAIRHFENKFAVETLICRLW, the amyloid nucleation score entry was “inactive”.

As for EASNCFAIRHFENKFAVETLICRLWW, the amyloid nucleation score entry is “inactive”.

As to EASNCFAIRHFENKFAVETLICRMAVPS, the amyloid nucleation score result was “inactive”.

For the sequence EASNCFAIRHFENKFAVETLICRMCDNCRMGVAC, the amyloid nucleation score entry is “inactive”.

Sequence EASNCFAIRHFENKFAVETLICRMFVVGGLVVLW yielded an amyloid nucleation score of -0.0583.

Turning to EASNCFAIRHFENKFAVETLICRMFYLN, the amyloid nucleation score entry was “inactive”.

Take EASNCFAIRHFENKFAVETLICRMKFEMFFYASK: the amyloid nucleation score entry is “inactive”.

As to EASNCFAIRHFENKFAVETLICRMLIRPCGVSAR, the amyloid nucleation score result was “inactive”.

With EASNCFAIRHFENKFAVETLICRMLVGRGGQLIS, the amyloid nucleation score entry is “inactive”.

EASNCFAIRHFENKFAVETLICRMMCCMLGAFDK: the amyloid nucleation score amounted to 7.4.

In the case of EASNCFAIRHFENKFAVETLICRMMGW, the amyloid nucleation score entry is “inactive”.

Staying with this series, now noted: random library (experiment): 3.
Regarding EASNCFAIRHFENKFAVETLICRLLRRS, the amyloid nucleation score entry was “inactive”.

Sequence EASNCFAIRHFENKFAVETLICRLPSSVFDRSWR showed an amyloid nucleation score of 5.12.

With EASNCFAIRHFENKFAVETLICRLQ, the amyloid nucleation score was determined as 7.22.

Turning to EASNCFAIRHFENKFAVETLICRLQC, the amyloid nucleation score result was “inactive”.

As for EASNCFAIRHFENKFAVETLICRLR, the amyloid nucleation score entry is “inactive”.

For EASNCFAIRHFENKFAVETLICRLRGCGLVGFS, the amyloid nucleation score result was “inactive”.

For the sequence EASNCFAIRHFENKFAVETLICRLRLRSGAVRGA, the amyloid nucleation score result is “inactive”.

Turning to EASNCFAIRHFENKFAVETLICRLRLVRSTVVA, the amyloid nucleation score entry is “inactive”.

With EASNCFAIRHFENKFAVETLICRLRRANDWNHNE, the amyloid nucleation score entry is “inactive”.

For the sequence EASNCFAIRHFENKFAVETLICRLSDF, the amyloid nucleation score was -0.0179.

With EASNCFAIRHFENKFAVETLICRLSPRVGSSMYG, the amyloid nucleation score entry is “inactive”.

For EASNCFAIRHFENKFAVETLICRLSTSIYSSRSW, the amyloid nucleation score result is “inactive”.

On to EASNCFAIRHFENKFAVETLICRLTLSGQRRWSE, for which the amyloid nucleation score was determined as 3.01.

With EASNCFAIRHFENKFAVETLICRLTVC, the amyloid nucleation score result was “inactive”.

In the case of EASNCFAIRHFENKFAVETLICRLVPRSMQGRLR, the amyloid nucleation score result is “inactive”.

In the case of EASNCFAIRHFENKFAVETLICRLVRCRIFVRCP, the amyloid nucleation score result was “inactive”.

With EASNCFAIRHFENKFAVETLICRLVYIVDRRAHC, the amyloid nucleation score entry was “inactive”.

On to EASNCFAIRHFENKFAVETLICRMACYRGFVAEN, for which the amyloid nucleation score result was “inactive”.

Turning to EASNCFAIRHFENKFAVETLICRMALRRRAGQGG, the amyloid nucleation score entry was “inactive”.

Turning to EASNCFAIRHFENKFAVETLICRMAWFKDMDV, the amyloid nucleation score was determined as 4.13.

The sequence EASNCFAIRHFENKFAVETLICRMCYDINLSVVR came in with an amyloid nucleation score of 1.15.

Regarding EASNCFAIRHFENKFAVETLICRMFFLTNSSCQM, the amyloid nucleation score entry is “inactive”.

Consider EASNCFAIRHFENKFAVETLICRMHWGRWKKCMW, for which the amyloid nucleation score entry is “inactive”.

EASNCFAIRHFENKFAVETLICRMIPCARTVWRA: the amyloid nucleation score entry was “inactive”.

For EASNCFAIRHFENKFAVETLICRMKKVFTRVVRW, the amyloid nucleation score entry was “inactive”.

In the case of EASNCFAIRHFENKFAVETLICRML, the amyloid nucleation score was -0.0863.

On to EASNCFAIRHFENKFAVETLICRMLPLVVVVGRC, for which the amyloid nucleation score entry was “inactive”.

As for EASNCFAIRHFENKFAVETLICRMMAIVDRLVWK, the amyloid nucleation score entry was “inactive”.

Take EASNCFAIRHFENKFAVETLICRMMDVRWCARVR: the amyloid nucleation score result is “inactive”.

The record behind these values is the supplement of paper PMC12067230.
